From article PMC4336329 (PLoS ONE, 2015)
The whole screen tested about 310,000 compounds, of which about 14,000 (4.5%) showed an effect of 50% or more. The effect is printed as a negative number. The list shows a part of the results.

What follows are molecules tested against human ether-à-go-go-related gene (hERG) potassium channel (human, UniProt Q12809) (assay: primary screen, population patch clamp on CHO cells stably expressing hERG).
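Note: peak tail current of the secondary pulse compared with the same well before compound.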

human ether-à-go-go-related gene (hERG) potassium channel, sequence (Q12809 whole entry, looked up): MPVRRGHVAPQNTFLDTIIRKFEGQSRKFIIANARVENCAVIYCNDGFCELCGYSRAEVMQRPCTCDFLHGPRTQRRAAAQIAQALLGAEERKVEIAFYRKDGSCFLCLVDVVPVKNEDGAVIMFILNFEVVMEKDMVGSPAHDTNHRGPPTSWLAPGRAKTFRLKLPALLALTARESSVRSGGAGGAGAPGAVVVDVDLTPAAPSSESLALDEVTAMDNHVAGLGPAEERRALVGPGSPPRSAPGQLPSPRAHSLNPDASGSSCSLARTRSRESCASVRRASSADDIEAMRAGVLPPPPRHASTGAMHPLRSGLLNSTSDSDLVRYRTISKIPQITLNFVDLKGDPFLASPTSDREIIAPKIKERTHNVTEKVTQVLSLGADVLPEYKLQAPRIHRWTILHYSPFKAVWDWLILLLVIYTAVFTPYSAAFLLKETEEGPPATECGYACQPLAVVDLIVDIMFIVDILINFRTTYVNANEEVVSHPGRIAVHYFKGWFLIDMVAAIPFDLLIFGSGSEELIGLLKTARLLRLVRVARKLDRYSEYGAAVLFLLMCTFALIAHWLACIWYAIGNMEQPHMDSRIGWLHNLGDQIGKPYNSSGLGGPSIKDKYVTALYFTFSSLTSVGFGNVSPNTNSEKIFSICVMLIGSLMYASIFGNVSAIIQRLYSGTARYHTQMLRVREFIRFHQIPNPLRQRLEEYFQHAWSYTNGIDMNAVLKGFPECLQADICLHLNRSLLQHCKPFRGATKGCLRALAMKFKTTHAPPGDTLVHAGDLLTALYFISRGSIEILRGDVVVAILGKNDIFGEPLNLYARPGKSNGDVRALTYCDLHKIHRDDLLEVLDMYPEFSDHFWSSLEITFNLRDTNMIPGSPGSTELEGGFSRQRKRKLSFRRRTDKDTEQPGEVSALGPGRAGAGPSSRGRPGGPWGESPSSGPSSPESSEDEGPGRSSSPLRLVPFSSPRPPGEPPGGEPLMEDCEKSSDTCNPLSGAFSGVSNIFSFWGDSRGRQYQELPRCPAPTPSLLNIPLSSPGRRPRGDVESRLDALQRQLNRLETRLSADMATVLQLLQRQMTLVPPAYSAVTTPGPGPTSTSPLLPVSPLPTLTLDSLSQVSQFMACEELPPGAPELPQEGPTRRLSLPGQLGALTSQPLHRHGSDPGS

| SMILES | hERG current change (%, negative = inhibition) at 10uM [%] |
| --- | --- |
| CCC(=O)NC1=C(Nc2ccc(N)cc2)C(=O)c2ccccc2C1=O | 24.4 |
| COc1ccc(CNCC(O)(c2ccc(F)cc2)c2ccc(F)cc2)cc1 | -67.3 |
| O=C(NNC1CC(=O)N(c2ccc(Br)cc2)C1=O)c1cccs1 (centres unmarked) | 9.23 |
| COc1ccc(C(=O)Nc2cccc(OC(=O)c3ccc(C)c(C)c3)c2)cc1 | -7.1 |
| O=C(Cc1ccc(-n2cccc2)cc1)NC1CCCCCC1 | -12 |
| COc1cccc(CC(=O)OCC(=O)NC(Cc2ccccc2)C(C)=O)c1 (centres unmarked) | 4.36 |
| O=C(Nc1cccc(O)c1)c1cc(-c2ccc3c(c2)OCO3)on1 | 11.3 |
| O=C(COC(=O)[C@@H]1CCCN1S(=O)(=O)c1ccc(Cl)cc1)NC1CCS(=O)(=O)C1 (some centres unmarked) | -14.7 |
| O=[N+]([O-])c1ccc(S(=O)(=O)NCC2COc3ccccc3O2)cc1 (centres unmarked) | -30.5 |
| Cc1ccc(-c2c[n+]3c(n2-c2ccccc2)SCC3)cc1.[Br-] | -35.8 |
| N#CC(=C1Nc2ccccc2N1)S(=O)(=O)c1ccccc1 | 14.4 |
| CC(=O)c1sc(NC(=O)C2CCN(C(=O)c3ccccc3C)CC2)nc1-c1ccccc1 | -8.99 |
| O=C(CN(c1ccccc1F)S(=O)(=O)c1ccccc1)NC1CCCCCC1 | 2.92 |
| COc1ccc(/C=C/C(=O)Nc2ccccc2C(=O)O)cc1OC | -1.9 |
| O=C(Nc1cccc(NC(=O)c2ccco2)c1)c1ccccc1 | -9.36 |
| CCOC(=O)C1(CC2CCCCO2)CCN(C(=O)Nc2ccc(C(=O)OC)cc2)CC1 (centres unmarked) | 7.13 |
| CCCn1c(N)c(N(CCOC)C(=O)c2ccc(N(C)S(=O)(=O)c3ccc(C)cc3)cc2)c(=O)[nH]c1=O | 7.32 |
| COc1ccc(CNc2nc3nc(-c4ccccc4)cc(=O)n3[nH]2)cc1OC | -13.1 |
| CSc1ccc(Cl)c(C(=O)NCC(C)C)c1 | 14.7 |
| CCN(c1ccccc1)c1cc(C)nc2nc(C)nn12 | 9.16 |
| O=C1/C(=C/c2cccc([N+](=O)[O-])c2)CSc2ccc(Cl)cc21 | 9.89 |
| COc1ccc(N2CC(C(=O)Nc3nnc(SCC(=O)NC4CCCC4)s3)CC2=O)cc1 (centres unmarked) | 16.2 |
| O=C(O)c1ccc2c(c1)C1C=CCC1C(c1cc3c(cc1Br)OCO3)N2 (centres unmarked) | 21.2 |
